Assay results published in PubChem BioAssay AID1030 (National Center for Advancing Translational Sciences (NCATS), 2008).
In all, about 220,000 compounds went through this assay and about 16,000 (7.3%) were called active. The shares of active, inactive and inconclusive entries below differ from those in the screen. The call rests on the fitted dose curve; in most records, active means well fitted inhibition curve with a large enough effect (not every such curve was filed as active); inconclusive means small, poorly fitted or top-dose-only effect, or another doubt; inactive means no such curve, though single readings can be large or run the other way. Potencies of inconclusive entries are left out as doubtful fits.

target: Aldehyde dehydrogenase 1A1 (Homo sapiens) (UniProt P00352); experiment: qHTS Assay for Inhibitors of Aldehyde Dehydrogenase 1 (ALDH1A1); settings: Purified ALDH1A1, NADH fluorescence, propionaldehyde substrate; series mostly up to 75.3 µM; activity, negative = inhibition: at the top concentration;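 on activity, negative = inhibition: plate controls were no enzyme wells and a reference inhibitor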
Sequence of UniProt P00352 (P00352 whole entry, looked up): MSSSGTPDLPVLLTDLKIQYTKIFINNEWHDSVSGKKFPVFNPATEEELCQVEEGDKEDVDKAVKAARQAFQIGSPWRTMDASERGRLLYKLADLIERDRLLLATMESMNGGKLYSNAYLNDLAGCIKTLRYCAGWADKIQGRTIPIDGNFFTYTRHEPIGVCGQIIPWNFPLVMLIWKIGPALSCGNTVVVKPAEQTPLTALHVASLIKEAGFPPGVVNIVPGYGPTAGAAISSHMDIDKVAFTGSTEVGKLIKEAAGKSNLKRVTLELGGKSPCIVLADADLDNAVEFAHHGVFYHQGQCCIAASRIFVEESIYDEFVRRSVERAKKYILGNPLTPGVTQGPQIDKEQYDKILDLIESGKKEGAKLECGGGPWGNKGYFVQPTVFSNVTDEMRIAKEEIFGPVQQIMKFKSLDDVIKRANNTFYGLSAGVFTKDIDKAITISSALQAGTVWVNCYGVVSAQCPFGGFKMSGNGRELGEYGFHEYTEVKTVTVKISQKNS
Potency means the concentration at half of the fitted maximal effect; tags describe the fitted curve by direction and shape.

| Compound | Potency | activity, negative = inhibition |
| --- | --- | --- |
| NC(=O)c1sc2nc3c(c(-c4ccccc4)c2c1N)CCC3 | inconclusive [inhibitor, single point] | – |
| O=S(=O)(NCC(c1ccco1)N1CCN(c2ccccc2F)CC1)c1ccccc1 (configuration not stated) | inconclusive [inhibitor, single point] | – |
| C/C(=N\NC(=O)c1ccncc1)c1ccc(N(C)C)cc1 | inconclusive [inhibitor, single point] | – |
| COCCCNC(=O)c1ccc(-c2csc(C)n2)cc1 | inconclusive [inhibitor, single point] | – |
| O=[N+]([O-])c1cc2c(cc1/C=N/n1c(-c3ccccc3)n[nH]c1=S)OCO2 | active: 12.6 µM | – |
| O=S(=O)(NCc1cn2ccsc2n1)c1cccs1 | – | inactive: -1.27% |
| CCCc1nn(C)c2c1C(c1cccnc1)C(C#N)=C(N)O2 (configuration not stated) | – | inactive: 10.5% |
| CCNC(=O)COC(=O)c1ccc(-n2nc(C)cc2C)cc1 | – | inactive: 7.98% |
| Cc1ccc(CCN2C(=O)c3ccccc3C2C(=O)NCc2cccnc2)cc1 (configuration not stated) | – | inactive: 1.52% |
| O=C(CSc1n[nH]c(-c2cccs2)n1)NCc1cccs1 | – | inactive: 24.4% |
| C/C(=N\NC(=O)c1csc(C)c1C)c1ccco1 | inconclusive [inhibitor, single point] | – |
| O=C(c1ccccc1)N1CCN(S(=O)(=O)N2CCCCC2)CC1 | – | inactive: -1.47% |
| CC(C)(C)OC(=O)N1CCC(NC(=O)c2[nH]cnc2C(=O)N[C@@H](Cc2ccccc2)C(=O)OCc2ccccc2)CC1 | – | inactive: -3.65% |
| CCC/C(=N\NC(=O)c1cccc(C)c1)c1ccccc1 | inconclusive [inhibitor, single point] | – |
| CCN(CC)CCn1c(SCC(=O)Nc2ccc(F)cc2)nc2c(sc3ccccc32)c1=O | inconclusive [inhibitor, partial curve] | – |
| CC(=O)c1nc(N2C(=O)C3CC=C(C)CC3C2=O)sc1C (configuration not stated) | active: 2.51 µM | – |
| c1ccc(C2=Nn3c(nnc3-c3cccnc3)SC2)cc1 | – | inactive: 14.5% |
| COc1ccc(NC(=O)O/N=C2/CCCc3ccc(OC)cc32)cc1 | – | inactive: -6.02% |
| COc1ccc(CCN2C(=O)CC(N3CCN(S(=O)(=O)c4ccccc4)CC3)C2=O)cc1 (configuration not stated) | inconclusive [inhibitor, partial curve] | – |
| COc1ccc(C(=O)CSC2=C(C#N)C3(CCCCC3)C(C#N)=C(N)N2)cc1 | active: 8.91 µM | – |
| COc1ccc(-c2cc(C(=O)N/N=C/c3ccc(OC)c(COCC(F)(F)C(F)F)c3)c3ccccc3n2)c(OC)c1 | inconclusive [inhibitor, partial curve] | – |
| CC(=O)Nc1cccc(-n2nnc(SCC(=O)Nc3ccccc3)n2)c1 | inconclusive [inhibitor, partial curve] | – |
